Reference: article PMC4336329 (PLoS ONE, 2015)
About 14,000 (4.5%) of roughly 310,000 compounds showed an effect of 50% or more. The effect is printed as a negative number. The list shows a part of the results.

molecular target: human ether-à-go-go-related gene (hERG) potassium channel (human, UniProt Q12809); experiment: primary screen, population patch clamp on CHO cells stably expressing hERG
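Also: peak tail current of the secondary pulse compared with the same well before compound.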

human ether-à-go-go-related gene (hERG) potassium channel, sequence (Q12809 whole entry, looked up): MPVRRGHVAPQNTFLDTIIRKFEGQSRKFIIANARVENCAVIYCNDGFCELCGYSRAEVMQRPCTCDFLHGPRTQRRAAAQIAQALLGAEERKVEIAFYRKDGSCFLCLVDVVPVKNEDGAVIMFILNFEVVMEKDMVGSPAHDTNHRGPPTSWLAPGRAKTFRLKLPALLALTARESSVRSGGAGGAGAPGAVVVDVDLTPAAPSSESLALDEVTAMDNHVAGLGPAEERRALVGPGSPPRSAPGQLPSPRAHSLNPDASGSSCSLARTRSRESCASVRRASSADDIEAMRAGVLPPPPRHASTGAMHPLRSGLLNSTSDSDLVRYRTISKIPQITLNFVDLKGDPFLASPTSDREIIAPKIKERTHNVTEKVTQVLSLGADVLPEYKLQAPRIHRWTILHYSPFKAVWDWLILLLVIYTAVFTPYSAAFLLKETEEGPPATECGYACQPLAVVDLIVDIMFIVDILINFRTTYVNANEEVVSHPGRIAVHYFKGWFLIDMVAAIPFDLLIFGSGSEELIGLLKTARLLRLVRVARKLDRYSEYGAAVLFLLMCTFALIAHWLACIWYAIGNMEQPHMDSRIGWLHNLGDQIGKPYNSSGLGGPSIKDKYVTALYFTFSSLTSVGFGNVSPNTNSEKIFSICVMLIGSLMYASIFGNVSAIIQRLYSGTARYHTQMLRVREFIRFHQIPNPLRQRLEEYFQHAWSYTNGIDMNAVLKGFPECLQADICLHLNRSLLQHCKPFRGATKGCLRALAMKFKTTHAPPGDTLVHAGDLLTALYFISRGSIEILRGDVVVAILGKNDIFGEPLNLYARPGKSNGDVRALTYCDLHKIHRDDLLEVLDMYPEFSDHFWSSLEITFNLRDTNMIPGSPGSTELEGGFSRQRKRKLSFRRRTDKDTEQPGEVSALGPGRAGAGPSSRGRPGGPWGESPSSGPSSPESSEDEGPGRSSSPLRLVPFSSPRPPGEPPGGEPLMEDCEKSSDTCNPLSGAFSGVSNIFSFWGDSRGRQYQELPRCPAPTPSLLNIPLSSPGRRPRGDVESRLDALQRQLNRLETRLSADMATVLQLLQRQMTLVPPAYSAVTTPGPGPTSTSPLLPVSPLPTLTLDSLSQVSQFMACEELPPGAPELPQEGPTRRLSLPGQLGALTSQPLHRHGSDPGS

Structure (SMILES)	hERG current change (%, negative = inhibition) at 10uM [%]
C/C(=N\NC(=O)c1nc2ccccn2c1C)c1ccco1	-1.34
CC(OCC(O)CN(C)CCOc1ccccc1)c1ccc(Cl)cc1 (centres unmarked)	-43.5
NS(=O)(=O)c1ccc(N/C=C\C(=O)c2ccc3ccccc3c2)cc1	3.74
CCCCC(NS(=O)(=O)c1ccc(C)cc1)C(=O)Oc1ccc2c3c(c(=O)oc2c1)CCC3 (centres unmarked)	5.24
CN(NS(=O)(=O)c1ccc(Br)cc1)c1nc(C(F)(F)F)nc2ccccc12	12.2
CS(=O)(=O)N(CC(=O)NCCSc1ccccc1)c1ccc2c(c1)OCO2	-20.9
CCCN(C(=O)COC(=O)CSc1ccc([N+](=O)[O-])cc1)C1CCS(=O)(=O)C1 (centres unmarked)	-16.9
CC(=O)Nc1sc(C)c(C)c1CN1CCN(Cc2ccccc2)CC1	-15.9
O=C(Nc1cc([N+](=O)[O-])ccc1Cl)c1cccnc1	5.85
Cl.Nc1cccc2c(O)cccc12	12.1
C=CCn1c(SCC(=O)c2cc(C)n(Cc3cccs3)c2C)nnc1-c1ccncc1	-19.2
CCCOc1ccc(C2c3c(oc4ccccc4c3=O)C(=O)N2CCN(CC)CC)cc1OC (centres unmarked)	-14.7
Cc1nn(Cc2ccc(Cl)c(Cl)c2)c(C)c1NC(=O)c1noc2c1CCCCC2	-3.7
COc1cccc(CN(C)C(=O)CN2C(=O)NC(c3ccccc3)(c3ccccc3)C2=O)c1	-36.5
CC(=O)c1ccc(NC(=O)N2CCCC(C(=O)c3ccc4c(c3)OCO4)C2)cc1 (centres unmarked)	-16.4
CCCN1CC(=O)N2C(c3cccc(OC)c3OC)c3[nH]c4ccccc4c3C[C@H]2C1=O (some centres unmarked)	-11.6
Cc1c(C(=O)N2CCCCC2)nn(-c2ccc(Cl)cc2)c(=O)c1C#N	-17.5
CCN(CC)S(=O)(=O)c1cccc(C(=O)N/N=C/c2ccc(O)c(O)c2O)c1	11.4
Clc1ccc(Sc2ccc(/C=N/n3cnnc3)o2)cc1	-31.4
COc1cccc(NC(=O)C2CCCN(S(C)(=O)=O)C2)c1 (centres unmarked)	26.4
COc1ccc(S(=O)(=O)NNC(=O)Nc2ccc(F)cc2F)c(OC)c1	0.893
Cc1ccc(NC(=O)CCSCCc2ccccn2)cc1	3.83
COc1ccc2c(c1)CC1(CN2C)C(=O)NC(=O)N(c2ccc(F)cc2)C1=O (centres unmarked)	4.23
